Results: PubChem BioAssay AID1671194 (National Center for Advancing Translational Sciences (NCATS), 2021)
The whole screen tested about 140,000 compounds, of which about 240 (0.17%) were called active. The inconclusive results got no clear call from the source; some entries with a clear call stand among them for comparison. Calls follow the shape of the dose curve; as a rule, active = well fitted inhibition curve with a large enough effect; inconclusive = small, poorly fitted or top-dose-only effect; inactive = no such curve, though single readings can be large or run the other way. Potencies beside an inconclusive call are fits to weak or partial responses and may not hold up.

Test: Primary qHTS assay for inhibitors of alpha-synuclein gene (SNCA) expression; also: nearly all actives have a fitted effect of over 45% in size
Settings: HEK-293 SNCA-luciferase knock-in, luminescence, 24 h; series mostly up to 57.2 µM
Potency is read from the fitted curve at half-maximal effect; tags tell the direction and shape of the fitted curve.

Compound | Potency
Cn1nccc1-c1cnc2n[nH]c(-c3ccc4c(c3)OCO4)c2n1 | inconclusive: 1 µM [inhibitor, full curve, poor fit]
CCCc1nnc(C[C@@H]2C[C@@H](C(C)C)[C@H](CNCc3cccnc3)C=C2C)o1 | inconclusive: 28.2 µM [inhibitor, partial curve, poor fit]
O=C(c1ccc(Cl)cc1)N1CCC(n2cc(-c3ccc(OC(F)(F)F)cc3)[nH]c2=O)CC1 | inconclusive: 2.82 µM [inhibitor, partial curve, poor fit]
COc1ccc(CNC(=O)c2noc(-c3ccc4c(c3)OCO4)n2)cc1 | inactive
COc1ccc(OC)c(NC(=O)CSc2c3c(nc4ccccc24)CCCC3)c1 | active: 22.4 µM
COc1ccc(Cl)cc1-c1ccc2c(c1)C(=O)N1CCN(C(=O)c3ccccc3)C[C@@H]1C(=O)N2 | inconclusive: 39.8 µM [inhibitor, partial curve, poor fit]
COc1cccc(-c2ccc(CN3CCCC(NC(=O)Nc4ccc(Cl)cc4)C3)cc2)c1 (stereo not given) | inconclusive: 25.1 µM [inhibitor, single point]
Cc1ccc(C(=O)NCc2nnc3c(-c4nc(C(C)C)no4)cccn23)cc1C | inactive
COc1ccc(NC(=O)CCNS(=O)(=O)c2cccc3nonc23)cc1 | inconclusive: 7.94 µM [inhibitor, single point]
COc1cccc(C(O)c2nc(C(=O)NC3CCN(C)CC3)c(C)o2)c1 (stereo not given) | inactive
O=C(C1CCCN(Cc2cccc(-c3ccc(F)cc3F)c2)C1)N1CCCC1 (stereo not given) | inactive
COCC(=O)Nc1ccc(-c2noc([C@@H]3CCCN3Cc3ncc[nH]3)n2)cn1 | inactive
O=C(Nc1ccc(Cl)cc1)NC1CCN(Cc2cccc(-c3cccs3)c2)CC1 | inconclusive: 15.8 µM [inhibitor, partial curve, poor fit]
COc1ccccc1OC(C)C(=O)NCC1(N2CCOCC2)CCCCC1 (stereo not given) | inconclusive: 35.5 µM [inhibitor, single point]
Cc1ccc(Cn2cccc2C2=NC(C)(C)CO2)cc1 | inconclusive: 7.08 µM [inhibitor, single point]
COc1cccc(C(=O)N2CCCC(c3nn(-c4ccccn4)c(=O)[nH]3)C2)c1 (stereo not given) | inactive
COc1ccc(OCC(=O)N2CCC(Cc3nc(-c4ccc(OC)cc4)no3)CC2)cc1 | inactive
CCC1Oc2ccc(NC(=O)c3cccs3)cc2CN(Cc2ccc(OC)cc2)C1=O (stereo not given) | inconclusive: 1.12 µM [inhibitor, full curve]
COCCn1cc2c3c(cccc31)CN(C(=O)c1c(F)cccc1Cl)CC2 | inconclusive: 3.16 µM [inhibitor, full curve]
Cc1ccc(OC(=O)c2cc(-c3ccc4c(c3)OCCO4)on2)c(C)c1 | inconclusive: 39.8 µM [inhibitor, single point]

Compound | Potency
Cc1ccccc1CN1CC[C@H](c2nc3ccccc3s2)C1 | inactive
COc1ccc(Cl)cc1NC(=O)Cn1ccn(Cc2ccc(C)cc2)c(=O)c1=O | inconclusive: 3.98 µM [inhibitor, full curve, poor fit]
CCOc1ccccc1NC(=O)C1CCN(S(=O)(=O)c2c(C)noc2/C=C/c2ccc(C)cc2)CC1 | inconclusive: 39.8 µM [inhibitor, single point]
c1ccc2c(c1)CCN2c1nccnc1OC1CCNC1 (stereo not given) | inactive
COc1ccc(CCC(=O)N[C@@H]2CN(c3ncccn3)C[C@H]2CO)cc1 | inactive
COc1ccccc1-c1cccc(C(=O)N2CCC[C@H]2C(=O)N2CCC(c3ccccc3)CC2)c1 | inconclusive: 14.1 µM [inhibitor, partial curve, poor fit]
Cc1nc2cccnc2n1CC1CCCN(S(=O)(=O)c2ccc(F)c(Cl)c2)C1 (stereo not given) | inconclusive: 39.8 µM [inhibitor, single point]
Cc1ccc([S+](=O)([O-])N2CCC(C(=O)N3CCCC(c4nc5ncccc5[nH]4)C3)CC2)cc1 (stereo not given) | inconclusive: 8.91 µM [inhibitor, single point]
O=C(NCc1ccccc1)c1nc2cccnc2n(CCc2ccccc2)c1=O | inconclusive: 31.6 µM [inhibitor, partial curve, poor fit]
Clc1ccc(-c2cnc([C@@H]3COCCN3Cc3cnc4ccccc4c3)[nH]2)s1 | inactive
CN(C)CC1(O)CCC2(CCN(S(=O)(=O)c3ccccc3)CC2)CC1 | inconclusive: 1.41 µM [inhibitor, full curve, poor fit]
N#Cc1cccc(-c2nc3cnc(N4CCOCC4)nc3n(Cc3ccc(F)cc3)c2=O)c1 | inconclusive: 39.8 µM [inhibitor, single point]
CCN(C1CCOCC1)C1CN(C(=O)C2CCCO2)C1 (stereo not given) | inconclusive: 2.51 µM [inhibitor, full curve, poor fit]
O=C(CNC(=O)c1cccc(-c2ccc(C(F)(F)F)cc2)c1)NCc1ccc(F)cc1 | inconclusive: 39.8 µM [inhibitor, single point]
CCOC(=O)C1CCN(C(=O)C2COC3(CCC(C)CC3)N2C(=O)c2ccccc2F)CC1 (stereo not given) | inactive
CO[C@H]1/C=C\O[C@@]2(C)Oc3c(C)c(O)c4c(O)c(c(C=NN5CCN(C6CCCC6)CC5)c(O)c4c3C2=O)NC(=O)C(C)=CC=C[C@H](C)[C@H](O)[C@@H](C)[C@@H](O)[C@@H](C)[C@H](OC(C)=O)[C@H]1C | inconclusive: 0.857 µM [inhibitor, full curve]
O=C1Nc2ccccc2OCC12CCN(Cc1cncs1)CC2 | inconclusive: 8.91 µM [inhibitor, single point]
Cc1cc(C)c(CNC(=O)c2cc(-c3ccccc3F)cc3c2OCCN3C(C)C)c(=O)[nH]1 | inconclusive: 39.8 µM [inhibitor, single point]
O=C(O)c1ccnc(-c2ccnc(NCC(O)c3ccccc3Cl)n2)c1 (stereo not given) | inconclusive: 39.8 µM [inhibitor, single point]
CC1CN(C(=O)c2csc(-c3ccc(C(F)(F)F)cc3)n2)CCCO1 (stereo not given) | inactive
